Laboratory results reported in article PMC10514306, “The CBL1/9-CIPK1 calcium sensor negatively regulates drought stress by phosphorylating the PYLs ABA receptor” (Nature Communications, 2023).
Results are given in words; binding and its absence hold for the method and conditions named. For some of these results: Binding seen in cells or lysates may run through a third protein. Some results given as binding are weak or reduced against the parent protein; the word gives no strength. For some of these results: Where a sequence is shown, tags or fusion partners need not be part of it. One block for each molecule: values may come before it.

The chains behind the UniProt entries cited, without tags or fusion partners.
UniProt P49597: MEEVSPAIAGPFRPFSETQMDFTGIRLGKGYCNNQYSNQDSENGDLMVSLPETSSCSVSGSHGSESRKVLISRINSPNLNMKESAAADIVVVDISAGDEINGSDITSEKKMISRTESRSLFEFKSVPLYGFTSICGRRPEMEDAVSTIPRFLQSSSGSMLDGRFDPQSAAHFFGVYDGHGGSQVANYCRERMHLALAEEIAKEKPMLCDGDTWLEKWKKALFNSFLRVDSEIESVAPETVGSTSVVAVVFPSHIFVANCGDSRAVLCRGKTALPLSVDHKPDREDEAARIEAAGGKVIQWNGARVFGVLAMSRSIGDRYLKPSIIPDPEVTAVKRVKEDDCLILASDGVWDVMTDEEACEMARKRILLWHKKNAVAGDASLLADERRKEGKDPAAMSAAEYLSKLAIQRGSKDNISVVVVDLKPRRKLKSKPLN
UniProt Q8VZS8: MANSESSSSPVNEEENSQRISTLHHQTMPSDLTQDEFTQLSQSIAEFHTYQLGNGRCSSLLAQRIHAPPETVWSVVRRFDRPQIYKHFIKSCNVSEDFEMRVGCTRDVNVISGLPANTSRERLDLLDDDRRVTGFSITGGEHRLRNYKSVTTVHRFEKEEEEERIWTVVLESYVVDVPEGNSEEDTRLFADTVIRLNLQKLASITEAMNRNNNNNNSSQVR
UniProt O49686: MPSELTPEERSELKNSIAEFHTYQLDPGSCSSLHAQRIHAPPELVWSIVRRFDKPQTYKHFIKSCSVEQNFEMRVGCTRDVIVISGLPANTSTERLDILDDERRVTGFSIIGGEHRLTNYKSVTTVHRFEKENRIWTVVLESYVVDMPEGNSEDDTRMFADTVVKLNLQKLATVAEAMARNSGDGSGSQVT

Assays:
[1] = biological target: T1, PYL4 in pGBKT7 (Arabidopsis) (UniProt O80920); assay: two-hybrid; ABI1 in pGADT7, PYL4 in pGBKT7, S. cerevisiae AH109; growth on SD/-Leu/-Trp/-His in the absence or presence of 10 uM ABA, 30 C, 4 d
T1 sequence: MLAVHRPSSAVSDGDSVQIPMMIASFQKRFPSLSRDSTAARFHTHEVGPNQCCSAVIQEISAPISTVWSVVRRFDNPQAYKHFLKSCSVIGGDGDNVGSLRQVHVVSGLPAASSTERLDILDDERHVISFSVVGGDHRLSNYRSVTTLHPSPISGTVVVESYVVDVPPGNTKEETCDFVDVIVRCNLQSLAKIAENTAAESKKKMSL

CIPK1-FLAG (Arabidopsis) = biological target: T2, CIPK1-FLAG (Arabidopsis) (UniProt Q8RWC9); assay: co-IP; protein extract of transgenic Arabidopsis expressing PYL1/4-GFP and CIPK1-FLAG; anti-FLAG precipitation, anti-GFP blot; without or with 100 uM ABA added to the extract
T2 sequence: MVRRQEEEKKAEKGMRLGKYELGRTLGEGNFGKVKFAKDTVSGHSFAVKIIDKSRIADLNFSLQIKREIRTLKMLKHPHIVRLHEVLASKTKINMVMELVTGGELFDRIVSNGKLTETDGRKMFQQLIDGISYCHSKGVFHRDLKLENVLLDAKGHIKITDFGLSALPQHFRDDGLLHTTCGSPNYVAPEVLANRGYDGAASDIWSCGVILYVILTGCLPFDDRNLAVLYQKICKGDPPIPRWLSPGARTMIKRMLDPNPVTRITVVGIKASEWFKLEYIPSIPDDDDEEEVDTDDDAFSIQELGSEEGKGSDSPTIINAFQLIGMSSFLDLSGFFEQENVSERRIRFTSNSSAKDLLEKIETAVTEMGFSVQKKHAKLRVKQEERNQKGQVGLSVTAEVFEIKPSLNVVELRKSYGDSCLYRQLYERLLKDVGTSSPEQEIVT

GST-ABI1 (Arabidopsis) = GST-ABI1 (Arabidopsis) (UniProt P49597); assay: pull-down; in vitro pull-down of ABI1 and PYL4 or PYL4^S129D; who was held is not stated; both purified
PYL3-YFP^c (Arabidopsis) = biological target: T3, PYL3-YFP^c (Arabidopsis) (UniProt Q9SSM7); assay: split reporter; BiFC: YFP^n-CIPK1 and PYR1/PYLs-YFP^c expressed in N. benthamiana leaves for 4 d; confocal microscopy
T3 sequence: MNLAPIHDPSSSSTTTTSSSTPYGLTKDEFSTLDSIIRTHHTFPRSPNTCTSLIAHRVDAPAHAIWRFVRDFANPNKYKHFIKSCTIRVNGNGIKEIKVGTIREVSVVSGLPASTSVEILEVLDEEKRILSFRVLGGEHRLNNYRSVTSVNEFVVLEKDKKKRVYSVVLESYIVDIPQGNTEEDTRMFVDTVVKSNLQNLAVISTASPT

PYL2-YFP^c (Arabidopsis) = biological target: T4, PYL2-YFP^c (Arabidopsis) (UniProt O80992); assay: as above
T4 sequence: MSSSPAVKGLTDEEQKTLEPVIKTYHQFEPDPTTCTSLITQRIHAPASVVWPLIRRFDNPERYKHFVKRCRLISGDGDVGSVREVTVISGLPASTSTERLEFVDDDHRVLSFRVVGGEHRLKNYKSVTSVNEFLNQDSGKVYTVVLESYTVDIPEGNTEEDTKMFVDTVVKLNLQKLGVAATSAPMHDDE

PYL1-YFP^c (Arabidopsis) = PYL1-YFP^c (Arabidopsis) (UniProt Q8VZS8); assay: as above
PYL6-YFP^c (Arabidopsis) = biological target: T5, PYL6-YFP^c (Arabidopsis) (UniProt Q8S8E3); assay: as above
T5 sequence: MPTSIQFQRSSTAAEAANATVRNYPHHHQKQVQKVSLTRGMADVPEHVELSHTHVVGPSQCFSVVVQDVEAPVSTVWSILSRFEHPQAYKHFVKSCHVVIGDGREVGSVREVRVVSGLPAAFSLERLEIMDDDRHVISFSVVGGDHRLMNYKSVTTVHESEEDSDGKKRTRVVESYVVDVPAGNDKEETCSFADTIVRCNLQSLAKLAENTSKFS

PYR1-YFP^c (Arabidopsis) = PYR1-YFP^c (Arabidopsis) (UniProt O49686); assay: as above
PYL4-YFP^c (Arabidopsis) [2] = biological target: T6, PYL4-YFP^c (Arabidopsis) (UniProt O80920); assay: as above
T6 sequence: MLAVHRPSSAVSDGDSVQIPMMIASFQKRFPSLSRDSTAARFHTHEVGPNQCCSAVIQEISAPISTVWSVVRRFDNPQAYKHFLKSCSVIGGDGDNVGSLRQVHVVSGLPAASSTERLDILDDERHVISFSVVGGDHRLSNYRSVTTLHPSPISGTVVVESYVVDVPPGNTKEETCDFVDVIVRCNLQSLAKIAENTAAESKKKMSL

PYL5-YFP^c (Arabidopsis) = biological target: T7, PYL5-YFP^c (Arabidopsis) (UniProt Q9FLB1); assay: as above
T7 sequence: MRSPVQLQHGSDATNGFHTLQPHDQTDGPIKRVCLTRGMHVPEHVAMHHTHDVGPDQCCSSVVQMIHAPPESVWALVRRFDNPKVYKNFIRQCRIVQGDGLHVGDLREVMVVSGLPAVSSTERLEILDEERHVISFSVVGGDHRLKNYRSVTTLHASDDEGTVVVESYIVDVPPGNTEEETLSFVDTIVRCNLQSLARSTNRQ

PYL4-YFP^c (Arabidopsis) [3] = biological target: T6, PYL4-YFP^c (Arabidopsis); assay: split reporter; BiFC in tobacco leaf protoplasts, without or with CBL1-FLAG; confocal microscopy; CBL1n-OFP as plasma-membrane marker
GST-PYL9 (Arabidopsis) = biological target: T8, GST-PYL9 (Arabidopsis) (UniProt Q84MC7); assay: pull-down; 5 ug GST-PYR1/PYLs on GST resin at 4 C for 2 h, then 2 ug CIPK1-His for 2 h in pull-down buffer; 6 washes; blots with anti-His and anti-GST; both purified
T8 sequence: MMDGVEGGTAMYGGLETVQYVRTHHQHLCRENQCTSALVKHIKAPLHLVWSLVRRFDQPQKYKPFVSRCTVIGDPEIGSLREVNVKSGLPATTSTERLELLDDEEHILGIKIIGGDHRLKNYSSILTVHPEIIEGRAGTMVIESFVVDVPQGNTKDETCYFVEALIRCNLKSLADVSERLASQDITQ

binding [1]: binds
Molecule: ABI1 in pGADT7 (from UniProt P49597 1-434) (enzyme)

binding (CIPK1-FLAG (Arabidopsis)): binds
Molecule: PYL1-GFP (from UniProt Q8VZS8 1-221) (receptor)

binding (CIPK1-FLAG (Arabidopsis)): binds
B1: PYL4-GFP (receptor, UniProt O80920 1-207)
chain: MLAVHRPSSAVSDGDSVQIPMMIASFQKRFPSLSRDSTAARFHTHEVGPNQCCSAVIQEISAPISTVWSVVRRFDNPQAYKHFLKSCSVIGGDGDNVGSLRQVHVVSGLPAASSTERLDILDDERHVISFSVVGGDHRLSNYRSVTTLHPSPISGTVVVESYVVDVPPGNTKEETCDFVDVIVRCNLQSLAKIAENTAAESKKKMSL

binding (GST-ABI1 (Arabidopsis)): binds
B2: PYL4-His (receptor, UniProt O80920 1-207)
chain: MLAVHRPSSAVSDGDSVQIPMMIASFQKRFPSLSRDSTAARFHTHEVGPNQCCSAVIQEISAPISTVWSVVRRFDNPQAYKHFLKSCSVIGGDGDNVGSLRQVHVVSGLPAASSTERLDILDDERHVISFSVVGGDHRLSNYRSVTTLHPSPISGTVVVESYVVDVPPGNTKEETCDFVDVIVRCNLQSLAKIAENTAAESKKKMSL

binding (PYL3-YFP^c (Arabidopsis)): binds
binding (PYL2-YFP^c (Arabidopsis)): binds
binding (PYL1-YFP^c (Arabidopsis)): binds
binding (PYL6-YFP^c (Arabidopsis)): binds
binding (PYR1-YFP^c (Arabidopsis)): binds
binding (PYL4-YFP^c (Arabidopsis) [2]): binds
binding (PYL5-YFP^c (Arabidopsis)): binds
binding (PYL4-YFP^c (Arabidopsis) [3]): binds
B3: YFP^n-CIPK1 (enzyme, UniProt Q8RWC9 1-444)
chain: MVRRQEEEKKAEKGMRLGKYELGRTLGEGNFGKVKFAKDTVSGHSFAVKIIDKSRIADLNFSLQIKREIRTLKMLKHPHIVRLHEVLASKTKINMVMELVTGGELFDRIVSNGKLTETDGRKMFQQLIDGISYCHSKGVFHRDLKLENVLLDAKGHIKITDFGLSALPQHFRDDGLLHTTCGSPNYVAPEVLANRGYDGAASDIWSCGVILYVILTGCLPFDDRNLAVLYQKICKGDPPIPRWLSPGARTMIKRMLDPNPVTRITVVGIKASEWFKLEYIPSIPDDDDEEEVDTDDDAFSIQELGSEEGKGSDSPTIINAFQLIGMSSFLDLSGFFEQENVSERRIRFTSNSSAKDLLEKIETAVTEMGFSVQKKHAKLRVKQEERNQKGQVGLSVTAEVFEIKPSLNVVELRKSYGDSCLYRQLYERLLKDVGTSSPEQEIVT

binding (GST-PYL9 (Arabidopsis)): no binding
B4: CIPK1-His (enzyme, UniProt Q8RWC9 1-444)
chain: MVRRQEEEKKAEKGMRLGKYELGRTLGEGNFGKVKFAKDTVSGHSFAVKIIDKSRIADLNFSLQIKREIRTLKMLKHPHIVRLHEVLASKTKINMVMELVTGGELFDRIVSNGKLTETDGRKMFQQLIDGISYCHSKGVFHRDLKLENVLLDAKGHIKITDFGLSALPQHFRDDGLLHTTCGSPNYVAPEVLANRGYDGAASDIWSCGVILYVILTGCLPFDDRNLAVLYQKICKGDPPIPRWLSPGARTMIKRMLDPNPVTRITVVGIKASEWFKLEYIPSIPDDDDEEEVDTDDDAFSIQELGSEEGKGSDSPTIINAFQLIGMSSFLDLSGFFEQENVSERRIRFTSNSSAKDLLEKIETAVTEMGFSVQKKHAKLRVKQEERNQKGQVGLSVTAEVFEIKPSLNVVELRKSYGDSCLYRQLYERLLKDVGTSSPEQEIVT
